Results reported in PubChem BioAssay (EPA / NIEHS).
Several values for one entry are separate records, joined by “and”; a condition that tells them apart may be missing. Identical values can stand only once. The inconclusive results got no clear call from the source; some entries with a clear call stand among them for comparison. For part of these data: A potency beside an inconclusive call is a rough fit, not a confirmed value. The source holds several records for some structures; these can differ, active in one and inactive in another. Activity calls are given as the source filed them. How the source made its calls: active means hit-call score of the fitted dose curve at least 0.9, where 1 is the maximum; inconclusive means response in the unintended direction; inactive means score below 0.9.

Key:
[1] = molecular target: Estrogen receptor beta (Homo sapiens) (UniProt Q92731); test: ATG_hERb_XSP2: Attagene TRANS-FACTORIAL Multi-Species (XSP2) HepG2 Assay for human Estrogen Receptor (ERb) (AID 2283813);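 further: actives raise reporter mRNA above DMSO so AC50 reflects agonist induction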
Method in brief: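 HepG2 cells transiently transfected with GAL4-UAS reporter units and chimeric human ERb-Gal4, 24 h exposure. Reporter mRNA quantified by RT-PCR with FAM labelling, HpaI digestion and capillary electrophoresis; gain of signal versus DMSO.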

[2] = TOX21_PR_LUC_Followup_Antagonist_viability: Viability Assessment in the Tox21 HEK293 Progesterone Receptor (PR) Antagonism Luciferase Follow-Up Assay (AID 2283940)
Method in brief: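 HEK293-PR-A-luc cells, precultured 5 days in assay medium with 10% charcoal-stripped FBS, were seeded at 3,000 cells/well, treated with compounds in DMSO for 16 h at 37C, and viability was read as cellular ATP by CellTiter-Glo luminescence.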

[3] = molecular target: Histone deacetylase 3 (Homo sapiens) (UniProt O15379); test: NVS_ENZ_hHDAC3: NovaScreen (NVS) Enzymatic Assay for human Histone Deacetylase 3 (HDAC3) (AID 2283163)
Method in brief: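 Recombinant human HDAC3 with fluorescent substrate, 1 h after dosing; product separated from substrate by electrophoretic mobility shift and read by fluorescence. Primary screen at 25 uM in duplicate; actives (e.g. ≥30% inhibition) retested in concentration-response up to 50 uM.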

[4] = molecular target: human Vascular Endothelial Growth Factor Receptor 2 (VEGFR2), KDR (gene 3791) (UniProt P35968); test: NVS_ENZ_hVEGFR2: NovaScreen (NVS) Enzymatic Assay for human Vascular Endothelial Growth Factor Receptor 2 (VEGFR2) (AID 2283230)
Method in brief: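 Cell-free recombinant VEGFR2 kinase, fluorescent substrate with electrophoretic mobility-shift separation; read 1 h after dosing. Screened at 25 uM in duplicate, hits to concentration-response up to 50 uM; loss-of-signal versus DMSO.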

[5] = tested on: turtle Estrogen Receptor (ERa), gene 101933533; test: ATG_trERa_XSP2: Attagene TRANS-FACTORIAL Multi-Species (XSP2) HepG2 Assay for turtle Estrogen Receptor (ERa) (AID 2283812);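 further: human HepG2 liver cells transiently expressing turtle ERa-Gal4 chimeric receptor; actives raise reporter signal above DMSO so AC50 reflects agonist activity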
Method in brief: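 HepG2 cells transiently transfected with GAL4-UAS reporter units expressing turtle ERa-Gal4 chimera. Reporter mRNA measured after 24 h dosing by RT-PCR, fluorescent labelling and capillary electrophoresis; gain of signal fitted versus DMSO.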

[6] = molecular target: Estrogen receptor beta (Homo sapiens) (UniProt Q92731); test: ATG_hERb_XSP1: Attagene TRANS-FACTORIAL Multi-Species (XSP1) HepG2 Assay for human Estrogen Receptor (ESR2) (AID 2283788)
Method in brief: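 Read-out: reporter mRNA induction by RT-PCR, HpaI digestion and capillary electrophoresis fluorescence, fitted in positive direction relative to DMSO baseline. Human liver HepG2 cells expressing ERβ-Gal4 fusion, dosed 24 h, medium containing 3 nM 6-alpha-fluorotestosterone.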

[7] = ATG_M_32_XSP1: Attagene TRANS-FACTORIAL Multi-Species (XSP1) HepG2 Assay for M32 Transcription Factor (Internal Marker) (AID 2283799)
Method in brief: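 HepG2 cells transiently transfected with multi-species TRANS reporter units, dosed 24 h with 3 nM 6-alpha-fluorotestosterone present. Internal-marker reporter mRNA quantified by RT-PCR and capillary electrophoresis; positive-direction fit versus DMSO.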

[8] = TAMU_PeakParms_SingleDonor1434_Asystole: Texas A&M University (TAMU) 1.5-hr Human Induced Pluripotent Stem Cell (iPSC)-derived Cardiomyocytes Calcium (Ca+2) Flux Assay for Cardiotoxicity: Asystole (quiescence of beating) (AID 2284328)
Method in brief: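 Human iPSC-derived cardiomyocytes (donor 1434) were exposed to 0.2, 1, 10 and 100 uM compound in 0.5% DMSO for 90 min at 37C. Ca2+-dye fluorescence gave average peak frequency; POD is EC95, a 95% beat-rate drop versus DMSO.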

[9] = read-out: glucuronosyltransferase (UGT1A1), UGT1A1 (gene 54658); test: CLD_UGT1A1_6hr: CellzDirect (CLD) Gene Expression Assay for glucuronosyltransferase (UGT1A1) at 6 hours (AID 2283672)
Method in brief: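 Primary human hepatocytes from two donor preparations, dosed with fresh solutions in 0.2% DMSO, harvested at 6 h. UGT1A1 mRNA measured by qNPA chemiluminescence; induction fitted upward versus DMSO.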

[10] = molecular target: rat Neonicotinoid receptor (NNR), Chrna7 (gene 25302) (UniProt Q05941); test: NVS_LGIC_rNNR_BungSens: NovaScreen (NVS) Ligand-Gated Ion Channel Assay for rat Neonicotinoid receptor (NNR) (AID 2283315)
Method in brief: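 Radioligand displacement binding on rat cortical membranes, 2.5 h incubation, filtration and scintillation counting. Loss of specific binding fitted relative to DMSO.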

[11] = molecular target: human Phosphodiesterase 10 (PDE10), PDE10A (gene 10846) (UniProt Q9Y233); test: NVS_ENZ_hPDE10: NovaScreen (NVS) Enzymatic Assay for human Phosphodiesterase 10 (PDE10) (AID 2283195)
Method in brief: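 Fluorescence/mobility-shift readout of PDE10A enzyme activity, taken 1 h post-dosing. Primary screen in duplicate at 25 uM; actives (e.g. ≥30% inhibition) retested as singleton concentration-response, top concentration 50 uM.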

[12] = TAMU_PeakParms_SingleDonor1434_QT: Texas A&M University (TAMU) 1.5-hr Human Induced Pluripotent Stem Cell (iPSC)-derived Cardiomyocytes Calcium (Ca+2) Flux Assay for Cardiotoxicity: QT (decay-rise ratio) (AID 2284235)
Method in brief: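 iPSC-derived cardiomyocytes (single donor 1434) dosed at 0.2, 1, 10, 100 uM final in 0.5% DMSO, 90 min at 37C. Ca2+ flux fluorescence decay/rise ratio; EC05 (5% increase versus DMSO) as POD, excluding beat-arrest and severe-notch data.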

[13] = ArunA_CellTiter_hNP: Viability Assessment in the ArunA Biomedical's Oris Neural Crest (hNC) Cell Migration Assay (AID 2283753)
Method in brief: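 H9-derived hNP1 neuroprogenitors, 60,000/well on Matrigel, cultured 16 h, then 72 h chemical exposure in test medium. Cell titer via CellTiter Aqueous One; positive-direction fit vs DMSO.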

[14] = ArunA_NOG_BranchPointsPerNeurite: ArunA Biomedical's Neurite Outgrowth (NOG) Assay for Branch Points Per Neurite (AID 2283759)
Method in brief: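 Automated image analysis traced neurites (processes >10 um) from valid cell bodies after Hoechst and βIII-tubulin staining. hNN cells from H9 embryonic stem cells, 48 h exposure. Fitted bidirectionally against DMSO.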

[15] = molecular target: rat Androgen Receptor (AR), Ar (gene 24208) (UniProt P15207); test: NVS_NR_rAR: NovaScreen (NVS) Nuclear Receptor Binding Assay for rat Androgen Receptor (AR) (AID 2283366)
Method in brief: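 Cell-free radioligand binding on extracts of prostate from testosterone-pretreated rats, read by filter-based scintillation counting 18 h after dosing. Loss of bound signal fitted positively versus DMSO; primary screen in duplicate at 25 uM, actives followed up in concentration series.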

[16] = molecular target: Protein deacetylase HDAC6 (Homo sapiens) (UniProt Q9UBN7); test: NVS_ENZ_hHDAC6: NovaScreen (NVS) Enzymatic Assay for human Histone Deacetylase 6 (HDAC6) (AID 2283164)
Method in brief: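 Recombinant human HDAC6 with fluorescent substrate, 1 h; product separated from substrate by electrophoretic mobility shift. Primary screen in duplicate at 25 uM; actives retested singly in concentration-response up to 50 uM, fitted relative to DMSO.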

[17] = molecular target: rat Somatostatin Receptor (SST), Sstr1 (gene 25033) (UniProt P28646); test: NVS_GPCR_rSST: NovaScreen (NVS) G Protein-Coupled Receptor Assay for rat Somatostatin Receptor (SST) (AID 2283314)
Method in brief: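 Rat forebrain membranes; radioligand displacement read by filter-based scintillation counting 1 h after dosing. Primary screen in duplicate at 25 uM. Actives (e.g., 30% inhibition) were rerun as concentration-response to 50 uM max and fitted against DMSO.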

[18] = molecular target: human LYN Proto-Oncogene, Src family Tyrosine Kinase (LynA), LYN (gene 4067) (UniProt P07948); test: NVS_ENZ_hLynA: NovaScreen (NVS) Enzymatic Assay for human LYN Proto-Oncogene, Src family Tyrosine Kinase (LynA) (AID 2283173)
Method in brief: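 Recombinant kinase with fluorescent substrate; product separated from substrate by electrophoretic mobility shift and read 1 h after dosing. Duplicate screen at 25 uM, then concentration-response up to 50 uM; activity scored as signal loss against DMSO.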

[19] = molecular target: Type-1 angiotensin II receptor (Homo sapiens) (UniProt P30556); test: NVS_GPCR_hAT1: NovaScreen (NVS) G Protein-Coupled Receptor Assay for human Angiotensin II receptor type 1 (AT1) (AID 2283263)
Method in brief: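 Membranes from KAN-TS cells; radioligand competitive displacement, 3 h, filtration and scintillation counting. Single-point duplicate screen at 25 uM, then concentration-response up to 50 uM for hits; loss of signal fitted versus DMSO.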

[20] = molecular target: human Thyroid hormone Receptor beta (TRb), THRB (gene 7068) (UniProt P10828); test: ATG_hTRb_XSP2: Attagene TRANS-FACTORIAL Multi-Species (XSP2) HepG2 Assay for human Thyroid hormone Receptor beta (TRb) (AID 2283840);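 further: actives raise reporter mRNA so potency reflects agonist-like gain of signal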
Method in brief: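 Transient transfection of human HepG2 with multi-species NR-Gal4/GAL4-UAS reporter constructs; 24 h compound treatment; RNA isolation, reverse transcription, PCR and HpaI digest; capillary electrophoresis of labeled fragments; activity fitted upward versus DMSO.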

SMILES: CC(C)C1CCC(Cc2ccc(Cl)cc2)C1(O)Cn1cncn1 (stereo not given)
- outcome [1]: inactive
- outcome [2]: inactive

SMILES: O=c1ccc(=O)[nH][nH]1
- AC50 [3]: active: 14.5 µM

SMILES: CC(C)(OOC(C)(C)c1ccccc1)c1ccccc1
- outcome [4]: inactive

SMILES: C#CCC1=C(C)C(OC(=O)C2C(C=C(C)C)C2(C)C)CC1=O (stereo not given)
- AC50 [5]: inconclusive: 100 µM

SMILES: CCc1cccc(C)c1N(C(=O)CCl)C(C)COC (stereo not given)
- AC50 [6]: active: 4.14 µM
- outcome [7]: inactive

SMILES: C1=Cc2cccc3cccc1c23
- AC50 [8]: inconclusive: 50 µM

SMILES: COc1cc(OC)nc(NC(=O)NS(=O)(=O)c2cc(NC=O)ccc2C(=O)N(C)C)n1
- AC50 [9]: inconclusive: 20 µM

SMILES: Nc1ccc(Oc2ccc(N)cc2)cc1
- AC50 [10]: inconclusive: 1.81 µM

SMILES: CCOP(=S)(OCC)OP(=S)(OCC)OCC
- AC50 [11]: inconclusive: 25 µM

SMILES: c1ccc(N=Nc2ccccc2)cc1
- AC50 [12]: inconclusive: 50 µM

SMILES: CC1=NNC(=O)N(/N=C/c2cccnc2)C1
- AC50 [13]: inconclusive: 0.954 µM
- AC50 [14]: active: 66.2 µM

SMILES: CCCSP(=S)(OCC)Oc1ccc(Cl)cc1Cl (stereo not given)
- AC50 [2]: inconclusive: 46.1 µM

SMILES: Cc1cc(N=Nc2ccccc2C)ccc1N
- AC50 [3]: inconclusive: 0.0593 µM
- outcome [15]: inactive

SMILES: CCCCOP(=O)(CCCC)OCCCC
- outcome [11]: inactive

SMILES: N#CSCSC#N
- AC50 [16]: active: 3.68 µM
- outcome [17]: inactive

SMILES: COC(=O)Nc1nc2ccccc2[nH]1
- AC50 [16]: inconclusive: 0.228 µM
- AC50 [18]: inconclusive: 25 µM

SMILES: C[Si](Cn1cncn1)(c1ccc(F)cc1)c1ccc(F)cc1
- AC50 [13]: inconclusive: 5 µM

SMILES: CCCCOC(=O)c1ccccc1C(=O)OCc1ccccc1
- AC50 [6]: inconclusive: 100 µM
- outcome [7]: inactive

SMILES: CCN(CC)N=O
- AC50 [18]: inconclusive: 1.39 µM
- AC50 [11]: inconclusive: 25 µM

SMILES: CC(C)=CC1C(C(=O)OCN2C(=O)C3=C(CCCC3)C2=O)C1(C)C (stereo not given)
- outcome [17]: inactive

SMILES: CCCOc1nn(C(=O)NS(=O)(=O)c2ccccc2C(=O)OC)c(=O)n1C
- outcome [19]: inactive

SMILES: CCCCN(CC)c1c([N+](=O)[O-])cc(C(F)(F)F)cc1[N+](=O)[O-]
- outcome [9]: inactive

SMILES: CC1(C)[C@H](C(=O)O[C@H](C#N)c2cccc(Oc3ccccc3)c2)[C@@H]1C=C(Br)Br
- AC50 [12]: inconclusive: 4.72 µM

SMILES: O=P(Oc1ccccc1)(Oc1ccccc1)Oc1ccccc1
- outcome [13]: inactive
- AC50 [14]: inconclusive: 5 µM
- AC50 [5]: inconclusive: 100 µM
- AC50 [1]: inconclusive: 100 µM
- AC50 [20]: inconclusive: 100 µM

SMILES: O=S(=O)(O)C(F)(F)C(F)(F)C(F)(F)C(F)(F)C(F)(F)C(F)(F)C(F)(F)C(F)(F)F
- AC50 [3]: active: 17.4 µM and active: 10.3 µM
- AC50 [18]: inconclusive: 23.5 µM
- AC50 [4]: active: 27.2 µM and active: 43.1 µM
- AC50 [19]: inconclusive: 337 nM and active: 49.6 µM
- outcome [19]: inactive
- AC50 [13]: inconclusive: 0.634 µM
- outcome [14]: inactive
- outcome [5]: inactive
- AC50 [20]: inconclusive: 149 µM
